About 17,000 (4.4%) of roughly 390,000 compounds were called active. The shares of active, inactive and inconclusive entries below differ from those in the screen. Calls follow the shape of the dose curve; as a rule, active = well fitted inhibition curve with a large enough effect; inconclusive = small, poorly fitted or top-dose-only effect; inactive = no such curve, though single readings can be large or run the other way. Where the call is inconclusive, the potency comes from a doubtful curve fit.
Target: Lysine-specific demethylase 4A (Homo sapiens) (UniProt O75164)
Sequence of UniProt O75164 (O75164 whole entry, looked up, the tested form may be a part): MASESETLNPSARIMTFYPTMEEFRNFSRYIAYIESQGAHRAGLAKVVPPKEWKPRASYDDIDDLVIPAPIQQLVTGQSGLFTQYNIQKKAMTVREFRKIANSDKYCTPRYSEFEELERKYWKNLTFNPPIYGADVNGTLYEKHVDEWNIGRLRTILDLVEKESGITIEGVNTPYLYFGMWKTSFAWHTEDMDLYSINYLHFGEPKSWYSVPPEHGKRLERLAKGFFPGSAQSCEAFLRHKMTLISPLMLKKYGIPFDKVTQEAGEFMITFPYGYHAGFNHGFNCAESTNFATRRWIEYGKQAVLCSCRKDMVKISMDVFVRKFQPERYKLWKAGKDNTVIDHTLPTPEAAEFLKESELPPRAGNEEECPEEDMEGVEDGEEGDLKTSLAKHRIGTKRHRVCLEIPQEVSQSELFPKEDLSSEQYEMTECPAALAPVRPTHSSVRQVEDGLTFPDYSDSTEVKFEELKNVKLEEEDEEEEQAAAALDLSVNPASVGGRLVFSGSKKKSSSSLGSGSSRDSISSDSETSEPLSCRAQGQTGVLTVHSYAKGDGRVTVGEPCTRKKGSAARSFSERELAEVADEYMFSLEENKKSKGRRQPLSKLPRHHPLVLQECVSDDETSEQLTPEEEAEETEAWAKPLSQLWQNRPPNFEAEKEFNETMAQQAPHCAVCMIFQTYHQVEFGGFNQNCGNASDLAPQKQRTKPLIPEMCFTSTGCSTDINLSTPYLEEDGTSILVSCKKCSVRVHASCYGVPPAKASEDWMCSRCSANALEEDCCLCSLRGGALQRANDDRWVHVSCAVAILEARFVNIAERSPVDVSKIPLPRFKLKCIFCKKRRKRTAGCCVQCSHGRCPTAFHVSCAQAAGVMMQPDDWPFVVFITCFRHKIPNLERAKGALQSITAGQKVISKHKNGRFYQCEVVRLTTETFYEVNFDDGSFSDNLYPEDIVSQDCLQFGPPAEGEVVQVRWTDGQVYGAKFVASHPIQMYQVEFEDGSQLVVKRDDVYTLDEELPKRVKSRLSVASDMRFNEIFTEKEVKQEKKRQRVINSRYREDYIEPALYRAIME
Experiment: qHTS Assay for Inhibitors of JMJD2A-Tudor Domain; also: nearly all actives have a fitted effect of over 50% in size
Details: AlphaScreen JMJD2A-Tudor / H3K4me3 peptide binding; activity change, negative = inhibition: at 114 µM (top of the series)
% is scaled to controls: 0 for no effect and ±100 for the full control effect; potency is read from the fitted curve at half-maximal effect; tags tell the direction and shape of the fitted curve.

SMILES	activity change, negative = inhibition	Potency
CN(CC(O)CN)CC(O)CN1CCCCC1 (stereo not given)	inactive: -22%	–
Clc1ccc(-c2nnnn2-c2ccc(Cl)cc2)cc1	inactive: 24.5%	–
O=C(COC(=O)CCC(=O)c1ccc(Cl)cc1)NCc1ccco1	–	inconclusive: 50.1 µM [inhibitor, partial curve]
CCc1ccc2oc(=O)cc(CN3CCN(c4ccc(F)cc4)CC3)c2c1	inactive: -19.1%	–
CC[C@@]12C(=O)N(c3cccc(Cl)c3)C(=O)N1[C@H](c1ccc(Br)cc1)[C@@H]1C(=O)N(C(C)(C)C)C(=O)[C@@H]12	–	active: 79.4 µM
C#Cc1ccc([C@@H]2C=C(C(=O)NC3CC3)O[C@H](OCC)[C@H]2CCCO)cc1	inactive: -9.86%	–
Cc1ccc(S(=O)(=O)Nc2c(C)nc3nc(C)[nH]n3c2=O)cc1	–	inconclusive: 3.98 µM [inhibitor, partial curve]
O=C(COC(=O)C1CC2C=CC1C2)NCc1ccco1 (stereo not given)	–	active: 39.8 µM
C=CC(=O)Nc1ccc(N(C)c2ccnc(Nc3ccc(N4CCN(C)CC4)cc3)n2)cc1	–	active: 35.5 µM
O=S(=O)(c1cccs1)N1CCN(S(=O)(=O)c2cccs2)CC1	inactive: -3.9%	–
COc1ccc(-c2nc3c(C(=O)NCCN(C)C)cccc3c3ccccc23)cc1	–	inconclusive: 50.1 µM [inhibitor, partial curve]
COc1ccccc1Nc1nc(N)nc(CN2CCC(Cc3ccccc3)CC2)n1	–	inconclusive: 79.4 µM [inhibitor, partial curve]
C#CCOCCOCCOCCNc1nc(N2CCN(C(=O)CCCCCCCCCCNC(=O)[C@@H](CCC(=O)O)n3cc(CCCCCN)nn3)CC2)nc(N2CCN(C(=O)CCCCCCCCCCNC(=O)[C@H](CO)n3cc(CCCCCN)nn3)CC2)n1	–	inconclusive: 56.2 µM [inhibitor, partial curve]
CC1CCc2c(cc(-c3ccccc3)n2-c2ccc(C(=O)NC(C)C)cc2)C1 (stereo not given)	–	inconclusive: 50.1 µM [inhibitor, partial curve]
CCN(CC)CCCNC(=O)c1cc(-c2ccccc2)c(N2CCCCC2)s1	–	inconclusive: 50.1 µM [inhibitor, partial curve]
NC(=S)NN=C(Cc1ccccc1)Cc1ccccc1	inactive: -29.9%	–
Cc1ccc(S(=O)(=O)c2nc(C)oc2N2CCOCC2)cc1	–	inconclusive: 14.1 µM [inhibitor, full curve, poor fit]
Cc1cc(C)c(OCCCCN(C)Cc2ccccc2)c(C)c1	–	active: 7.08 µM
Cc1cc(NC(=O)c2ccccc2)n(-c2nc3ccccc3[nH]2)n1	–	inconclusive: 79.4 µM [inhibitor, partial curve]
COc1ccc(C2CC(c3ccc(Cl)cc3Cl)Nc3nc(N)nn32)cc1 (stereo not given)	–	inconclusive: 31.6 µM [inhibitor, partial curve]

Reference: PubChem BioAssay AID504339 (National Center for Advancing Translational Sciences (NCATS), 2011)
